Test results taken from article PMC7480101.
These are yes or no findings as the source states them, for the method shown. Some results given as binding are weak or reduced against the parent protein; the word gives no strength.

The chains behind the UniProt entries cited, without tags or fusion partners. Where a name states a change or a piece, a line headed by the entry shows the natural chain unless it says otherwise. A line that says so, or that is headed by a name, gives the form on record, which may keep a tag or linker.
UniProt Q96CV9: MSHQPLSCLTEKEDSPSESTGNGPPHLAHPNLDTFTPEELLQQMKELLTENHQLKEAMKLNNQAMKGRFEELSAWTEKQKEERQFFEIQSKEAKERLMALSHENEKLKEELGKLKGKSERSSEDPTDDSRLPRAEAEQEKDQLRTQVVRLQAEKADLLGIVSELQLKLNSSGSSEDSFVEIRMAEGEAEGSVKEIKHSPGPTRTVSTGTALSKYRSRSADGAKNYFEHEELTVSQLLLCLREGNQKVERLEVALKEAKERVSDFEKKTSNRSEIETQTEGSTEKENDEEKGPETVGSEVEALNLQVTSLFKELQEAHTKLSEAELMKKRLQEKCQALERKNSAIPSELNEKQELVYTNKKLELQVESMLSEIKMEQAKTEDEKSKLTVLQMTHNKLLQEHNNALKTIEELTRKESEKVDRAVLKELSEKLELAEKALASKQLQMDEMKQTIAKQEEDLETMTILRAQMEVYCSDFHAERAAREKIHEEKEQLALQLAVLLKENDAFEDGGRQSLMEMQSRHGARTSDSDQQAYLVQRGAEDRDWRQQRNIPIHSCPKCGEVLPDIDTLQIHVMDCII
hAG-OPTN(170-577, S473E) (Q96CV9, form named): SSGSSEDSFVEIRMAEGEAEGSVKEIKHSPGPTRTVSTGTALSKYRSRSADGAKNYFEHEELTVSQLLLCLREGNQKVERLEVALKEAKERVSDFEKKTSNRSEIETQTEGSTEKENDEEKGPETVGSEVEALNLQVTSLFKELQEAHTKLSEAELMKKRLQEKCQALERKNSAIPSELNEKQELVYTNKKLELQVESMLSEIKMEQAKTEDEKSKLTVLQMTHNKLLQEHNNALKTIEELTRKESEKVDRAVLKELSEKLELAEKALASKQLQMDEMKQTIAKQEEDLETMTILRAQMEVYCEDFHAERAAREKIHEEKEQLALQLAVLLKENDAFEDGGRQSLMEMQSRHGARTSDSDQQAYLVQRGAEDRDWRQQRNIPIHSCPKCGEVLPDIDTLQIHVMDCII
hAG-OPTN(401-577, S473E) (Q96CV9, form named): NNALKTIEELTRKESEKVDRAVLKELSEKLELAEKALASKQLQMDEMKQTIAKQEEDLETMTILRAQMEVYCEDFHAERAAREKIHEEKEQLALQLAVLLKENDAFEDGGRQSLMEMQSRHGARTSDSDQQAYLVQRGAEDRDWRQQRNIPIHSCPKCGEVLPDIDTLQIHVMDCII
hAG-OPTN(143-5A-147, S473E) (Q96CV9, form named): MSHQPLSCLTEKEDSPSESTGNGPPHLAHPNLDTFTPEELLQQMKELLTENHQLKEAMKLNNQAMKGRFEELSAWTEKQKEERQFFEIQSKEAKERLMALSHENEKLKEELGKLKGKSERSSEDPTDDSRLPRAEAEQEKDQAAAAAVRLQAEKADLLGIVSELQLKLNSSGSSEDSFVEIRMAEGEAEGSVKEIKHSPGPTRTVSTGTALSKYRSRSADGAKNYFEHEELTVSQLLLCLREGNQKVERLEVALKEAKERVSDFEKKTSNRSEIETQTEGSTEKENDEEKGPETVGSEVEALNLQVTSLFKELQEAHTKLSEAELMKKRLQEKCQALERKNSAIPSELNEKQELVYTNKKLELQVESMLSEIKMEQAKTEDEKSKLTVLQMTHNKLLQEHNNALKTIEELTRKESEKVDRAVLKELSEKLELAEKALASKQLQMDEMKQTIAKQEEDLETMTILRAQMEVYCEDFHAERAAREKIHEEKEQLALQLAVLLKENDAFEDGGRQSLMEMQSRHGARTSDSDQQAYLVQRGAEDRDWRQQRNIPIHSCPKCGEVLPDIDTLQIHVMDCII
hAG-OPTN(128-5A-132, S473E) (Q96CV9, form named): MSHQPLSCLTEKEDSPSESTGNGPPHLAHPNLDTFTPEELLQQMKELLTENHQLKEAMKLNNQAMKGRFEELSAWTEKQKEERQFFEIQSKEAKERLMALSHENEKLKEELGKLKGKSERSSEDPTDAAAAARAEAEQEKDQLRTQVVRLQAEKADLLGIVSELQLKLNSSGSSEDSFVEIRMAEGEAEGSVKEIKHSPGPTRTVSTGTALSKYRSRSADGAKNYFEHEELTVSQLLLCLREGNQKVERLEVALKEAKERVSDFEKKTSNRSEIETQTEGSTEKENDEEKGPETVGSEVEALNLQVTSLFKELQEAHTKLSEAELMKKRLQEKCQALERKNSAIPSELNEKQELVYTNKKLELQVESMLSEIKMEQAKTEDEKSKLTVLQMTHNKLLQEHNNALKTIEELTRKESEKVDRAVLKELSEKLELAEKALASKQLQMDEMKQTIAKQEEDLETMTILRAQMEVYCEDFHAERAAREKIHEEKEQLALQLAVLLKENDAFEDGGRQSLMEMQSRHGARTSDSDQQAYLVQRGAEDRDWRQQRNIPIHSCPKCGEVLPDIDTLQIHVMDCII
hAG-OPTN(133-5A-137, S473E) (Q96CV9, form named): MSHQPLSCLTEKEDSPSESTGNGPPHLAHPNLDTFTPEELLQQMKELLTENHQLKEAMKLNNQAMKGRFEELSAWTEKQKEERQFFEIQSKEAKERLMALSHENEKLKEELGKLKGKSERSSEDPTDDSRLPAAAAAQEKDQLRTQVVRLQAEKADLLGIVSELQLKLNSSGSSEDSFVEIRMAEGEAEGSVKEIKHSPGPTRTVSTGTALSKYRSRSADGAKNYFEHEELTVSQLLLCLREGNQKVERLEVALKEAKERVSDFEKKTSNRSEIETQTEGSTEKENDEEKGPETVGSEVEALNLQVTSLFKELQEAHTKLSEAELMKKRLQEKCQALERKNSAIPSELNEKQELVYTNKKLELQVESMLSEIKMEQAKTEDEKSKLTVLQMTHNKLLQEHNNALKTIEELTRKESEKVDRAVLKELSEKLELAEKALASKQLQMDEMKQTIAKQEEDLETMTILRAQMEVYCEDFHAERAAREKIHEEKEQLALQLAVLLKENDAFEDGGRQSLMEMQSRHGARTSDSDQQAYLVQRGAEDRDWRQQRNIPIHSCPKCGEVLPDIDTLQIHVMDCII

Columns and labels:
Test in all cases: Fluoppi (phase-separated fluorescent foci in cells); hAG-tagged autophagy adaptor and HA-Ash-6Ub transiently co-expressed in HeLa (WT, Penta KO, FIP200 KO, ATG5 KO, ATG9A KO) or HCT116 (WT, TBK1-/-) cells; foci formation and incorporation of a third protein into the foci read by immunostaining and confocal microscopy; some samples with 2 µM BX-795 for 15 h
[1] = molecular target: hAG-OPTN(170-577, S473E) (human) (UniProt Q96CV9)
[2] = molecular target: hAG-OPTN(401-577, S473E) (human) (UniProt Q96CV9)
[3] = molecular target: hAG-OPTN(143-5A-147, S473E) (human) (UniProt Q96CV9)
hAG-NDP52 (human) = hAG-NDP52 (human) (UniProt Q13137)
[4] = molecular target: hAG-OPTN(128-5A-132, S473E) (human) (UniProt Q96CV9)
[5] = molecular target: hAG-OPTN(133-5A-137, S473E) (human) (UniProt Q96CV9)

B1: ATG9A (protein, UniProt Q7Z3C6 1-839)
chain: MAQFDTEYQRLEASYSDSPPGEEDLLVHVAEGSKSPWHHIENLDLFFSRVYNLHQKNGFTCMLIGEIFELMQFLFVVAFTTFLVSCVDYDILFANKMVNHSLHPTEPVKVTLPDAFLPAQVCSARIQENGSLITILVIAGVFWIHRLIKFIYNICCYWEIHSFYLHALRIPMSALPYCTWQEVQARIVQTQKEHQICIHKRELTELDIYHRILRFQNYMVALVNKSLLPLRFRLPGLGEAVFFTRGLKYNFELILFWGPGSLFLNEWSLKAEYKRGGQRLELAQRLSNRILWIGIANFLLCPLILIWQILYAFFSYAEVLKREPGALGARCWSLYGRCYLRHFNELEHELQSRLNRGYKPASKYMNCFLSPLLTLLAKNGAFFAGSILAVLIALTIYDEDVLAVEHVLTTVTLLGVTVTVCRSFIPDQHMVFCPEQLLRVILAHIHYMPDHWQGNAHRSQTRDEFAQLFQYKAVFILEELLSPIVTPLILIFCLRPRALEIIDFFRNFTVEVVGVGDTCSFAQMDVRQHGHPQWLSAGQTEASVYQQAEDGKTELSLMHFAITNPGWQPPRESTAFLGFLKEQVQRDGAAASLAQGGLLPENALFTSIQSLQSESEPLSLIANVVAGSSCRGPPLPRDLQGSRHRAEVASALRSFSPLQPGQAPTGRAHSTMTGSGVDARTASSGSSVWEGQLQSLVLSEYASTEMSLHALYMHQLHKQQAQAEPERHVWHRRESDESGESAPDEGGEGARAPQSIPRSASYPCAAPRPGAPETTALHGGFQRRYGGITDPGTVPRVPSHFSRLPLGGWAEDGQSASRHPEPVPEEGSEDELPPQVHKV
binding [1]: no binding
binding [2]: no binding
binding [3]: no binding
binding (hAG-NDP52 (human)): no binding
binding [4]: binds
binding [5]: binds
